Test results as given in PubChem BioAssay AID1963576 (National Center for Advancing Translational Sciences (NCATS), 2024).
Among all 46,000 compounds or so, about 60 (0.1%) were called active. Roughly 3% stayed inconclusive and do not appear here. Calls follow the shape of the dose curve; as a rule, active = well fitted inhibition curve with a large enough effect; inconclusive = small, poorly fitted or top-dose-only effect; inactive = no such curve, though single readings can be large or run the other way. Some of the results follow.

experiment: Primary qHTS assay for Inhibitors of ovarian cancer metastasis using an organotypic tumor microenvironment (TME) model.; also: nearly all actives have a fitted effect of over 65% in size;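 as to activity change, negative = inhibition: plate controls were DMSO wells for no effect and tomatine positive control wells for full effect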; conditions: SKOV3ip1-GFP adhesion/invasion on 3D omental model, fluorescence; series mostly up to 45.8 µM; activity change, negative = inhibition: at the top concentration
Method in brief: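 Adhesion/invasion was scored as fixed GFP-labeled SKOV3ip1 cell counts (488/509 nm), normalized to DMSO and tomatine controls. Cancer cells in serum-free medium, with four compound doses (0.36-46 umol/L), sat 2 hr at RT then 16 hr at 37 C on a 48 hr fibroblast/mesothelial/ECM culture.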

Activity change, negative = inhibition, inactive:
COc1ccc(C(=O)N2CCc3cc(OC)c(OC)cc3C2COc2ccc3c(C)cc(=O)oc3c2)c(OC)c1 (centres undefined) 1.19%, COc1ccc(NC(=O)c2sc3nc(C)c(C(=O)Nc4ccc(Cl)cc4)c(-c4ccc(Br)cc4)c3c2N)cc1 -6.92%, Cc1c(Cl)cccc1NC(=O)CCn1nc(C)c2c(C)n(-c3ccccc3)nc2c1=O 2.23%, CCOC(=O)c1ccc(NC(=O)c2ccc3c(c2)NC(=O)c2ccccc2S3)cc1 -2.75%, COC(=O)C(CCSC)NC(=O)c1c(C)oc2ncn(CC(C)C)c(=O)c12 (centres undefined) 10.4%, Cc1ccc(NC(=O)C(=O)NCC(c2cccnc2)N2CCN(C)CC2)cc1F (centres undefined) 19.5%, COc1cc2ccccc2cc1C(=O)Nc1ccc(Cl)c(-c2nc3ccccc3o2)c1 -42.7%, Cc1ccc(N2C(=O)c3[nH]nc(-c4ccc(Cl)cc4)c3C2c2ccc(F)cc2)cc1 (centres undefined) -21.9%, COc1ccc(CNC(=O)c2cccc(-n3cnc4cccnc43)c2C)cc1 6.37%, COc1cc(OC)cc(C(=O)NCC(c2cccs2)S(=O)(=O)c2ccc(F)c(C)c2)c1 (centres undefined) -4.45%, CCC(C)NC(=O)c1ccc2nc(Cc3ccc(OC)cc3)oc2c1 (centres undefined) 2.64%, NS(=O)(=O)c1ccc(NC(=O)c2ccc3c(c2)CCN3S(=O)(=O)c2ccccc2)cc1 6.46%, Cc1ccc(N(CC(=O)Nc2cc(C)cc(C)c2)S(=O)(=O)c2cccc3nonc23)cc1 0.132%, Cc1cc(C)cc(NC(=O)Cn2c(=O)c3ccccc3n3nncc23)c1 4.87%, CCc1ccc(CNC(=O)CN2C(=O)c3cccnc3Oc3ccc(C)cc32)cc1 2.03%, CCOC(=O)c1ccccc1NC(=O)c1sc2nc3n(c(=O)c2c1C)CCCC3 5.93%, Cc1c(C)n(C)c2ccc(C(=O)N3CCN(c4ccccc4)CC3)cc12 -3.33%, Cc1c(Cl)cccc1NC(=O)C(C)n1nnc2sc3c(c2c1=O)CCCC3 (centres undefined) -15%, CSc1ncc(Cl)c(C(=O)N(Cc2ccc(N(C)C)cc2)Cc2ccco2)n1 0.627%, CC(CC(=O)Nc1ccc(Br)cc1F)S(=O)(=O)c1ccc2c(c1)NC(=O)CO2 (centres undefined) -3.19%, CCc1ccc(Cc2cnc(NC(=O)c3ccc4c(c3)CC(c3ccccc3)OC4=O)s2)cc1 (centres undefined) -4.44%, Cc1cccc(C2CC(=O)Oc3c2c(=O)n(C)c2ccccc32)c1 (centres undefined) 1.88%, CCOC(=O)C1CCN(C(=O)C2CCN(C3=NS(=O)(=O)C(c4ccc(C)c(C)c4)=C3C)CC2)CC1 6.84%, Cc1ccc(CNC(=O)Cn2cc(C(=O)c3ccc(F)cc3)c(=O)c3ccc(C)nc32)cc1 3.56%, COc1ccc(CNC(=O)c2cc3c(s2)-c2ccccc2OC3)cc1 -0.146%, CCC(C)NC(=O)C(=O)Nc1c2c(nn1-c1ccccc1)CS(=O)(=O)C2 (centres undefined) 17.1%, CC(C)CCNC(=O)C1CCC(Cn2c(=O)c3sccc3n(CC(=O)NC(C)C)c2=O)CC1 (centres undefined) -19.1%, CC1CN(C(=O)CCC(=O)NCc2ccc(F)cc2)c2cc(Cl)ccc2O1 (centres undefined) -0.111%, COc1ccc(NC(=O)CSc2nc3c(oc4ccccc43)c(=O)n2-c2ccc(C)c(C)c2)cc1 -5.74%, COc1cc(OC)c(NC(=O)NCc2ccc3c(c2)CCN3C(=O)c2ccccc2)cc1Cl 11.5%, S=c1nc[nH]c2nc[nH]c12 3.31%, Cc1ccc(S(=O)(=O)c2nc(-c3cccc(C)c3)oc2N2CCN(c3ccccc3)CC2)cc1 -6.83%, COc1ccc2c(c1)CCc1c(C(=O)Nc3c(C)nn(Cc4ccc(Cl)c(Cl)c4)c3C)noc1-2 0.0448%, Cc1ccc(CNC(=O)c2ccc3c(=O)n(-c4ccccc4)c(=O)[nH]c3c2)cc1 2.67%, CCCSc1ncc(Cl)c(C(=O)Nc2nc3ccc(OCC)cc3s2)n1 -2.49%, COC(=O)c1sc2cccc(F)c2c1S(=O)(=O)N1CCN(c2ccc(F)cc2)CC1 -5.1%, Cc1nc2nc(SCC(=O)NCCc3ccc(Cl)cc3)nn2c(C)c1Cc1ccccc1 -3.3%, CCOC(=O)CC1c2cc(OCC)c(OCC)cc2CCN1C(=O)Nc1cccc(Cl)c1 (centres undefined) 3.9%, CC(=O)c1cc(C(=O)Nc2cc(C)cc(C)c2)c2ccccn12 6.01%, COC(=O)C(CCSC)NC(=O)c1cc2c(n(-c3ccc(C)cc3)c1=O)CC(C)(C)CC2=O (centres undefined) -12%, Cc1ccc2c(c1)cc1c(=O)n(CC(=O)NC3CCCCC3)nc(C)n12 -15.6%, CCc1ccccc1NC(=O)CSc1nc(-c2ccccc2OC)nc2c1Cc1c(CO)cnc(C)c1O2 2.32%, CCC(=O)N1c2ccc(S(=O)(=O)N3CCC(C)CC3)cc2CC1C (centres undefined) 3.68%, CCCCC(CC)CNC(=O)C1CCC(CNS(=O)(=O)c2cccc3nsnc23)CC1 (centres undefined) -2.43%, CCOC(=O)c1[nH]c(C)c(CCC(=O)NCc2ccccc2Cl)c1C -18.1%, CNC(=O)c1ccc(Nc2nnc(-c3ccc(C)c(S(=O)(=O)N(C)C)c3)c3ccccc23)cc1 0.314%, CCCc1ccc(S(=O)(=O)N2CCC(Oc3ccc(-n4cnnn4)cc3)CC2)cc1 7.14%, CCC(=O)Nc1ccc(-c2nnc3c4ccccc4c(C)nn23)cc1 1.86%, O=C(NCc1ccccc1)c1ccc2c(c1)CCN2S(=O)(=O)c1ccccc1 9.82%, Cc1cccc(C)c1-n1ncc(C(=O)N2CCN(c3ccccn3)CC2)c1C1CCN(C(=O)OC(C)(C)C)CC1 -7.48%, COc1cc(NC(=O)CSc2nc(-c3ccc(C)cc3)nc3c2Cc2ccccc2O3)cc(OC)c1 -22.5%, N#Cc1ccc(CSc2nc3c(c(=O)[nH]2)CCC3)cc1 5.57%, CC(C)(O)c1cc2nc(-c3cnc(N)nc3)nc(N3CCOCC3)c2s1 0.566%, O=C(CC1C(=O)OCCN1Cc1ccccc1)Nc1ccc(F)cc1 (centres undefined) 1.54%, Cc1c(Cn2c(C)nc3c(C(=O)O)cc(N4CCOCC4)cc32)cccc1C(F)(F)F 15.8%, CC(=O)c1ccc(NC(=O)CSc2cn(CC(=O)N3CCCCCC3)c3ccccc23)cc1 -15.6%, CS(=O)c1ccc(-c2nc(-c3ccc(F)cc3)c(-c3ccncc3)[nH]2)cc1 (centres undefined) 29.5% [at 92.2 µM], CC(C)Cn1c(=O)c2sccc2n2c(CCCC(=O)NCc3ccccc3Cl)nnc12 -2.51%, CCc1ccc2oc(-c3cc(NC(=O)C(C)C)cc(C)c3O)nc2c1 21.7%, COc1ccc(NC(=O)CSc2oc(-c3ccco3)nc2S(=O)(=O)c2ccc(Br)cc2)c(OC)c1 1.51%, CCOC(=O)N1CCC(NC(=O)c2cnn(-c3cccc(Cl)c3C)c2C2CCN(C(=O)OC(C)(C)C)CC2)CC1 -18.2%, O=C(Cn1cc(SCc2ccc(C(F)(F)F)cc2)c2ccccc21)N1CCCC1 -33.4%, CCCOc1ccc(-c2nonc2NC(=O)c2oc3ccc(C)cc3c2C)cc1OCCC 7.31%, COc1cccc(CNC(=O)C2CCN(S(=O)(=O)c3cn(C)cn3)CC2)c1 36.1%, COc1ccc(OC)c(NC(=O)c2cc(CN3CCCC3)on2)c1 9.32%, COc1cccc(CN2CCc3nc(N4CCN(c5ncccn5)CC4)ncc3C2)c1 2.5%, CCc1sc(Nc2cccc(Cl)c2C)nc1-c1cc2cccc(OC)c2oc1=O -3.03%

outcome, inactive:
O=C(Nc1ccc(F)c(Cl)c1)c1cc(S(=O)(=O)N2CCCc3ccccc32)ccc1F, CCOc1ccccc1NC(=O)CN1C(=O)C2(SCC(=O)N2c2cccc(F)c2)c2ccccc21 (centres undefined), COc1ccc(S(=O)(=O)N(CC(=O)NCc2ccc(C)cc2)c2ccc(Cl)cc2)cc1, Cc1ccc(NC(=O)C(=O)NCC(c2cccnc2)N2CCc3ccccc32)cc1Cl (centres undefined), Cc1c(Cl)cccc1NC(=O)CSc1ncccc1C(=O)Oc1ccccc1Cl, CCOCCSc1c(C)cnc2c1c(=O)n(C)c(=O)n2C, COc1cccc(C(=O)Nc2ccc(-c3cn4cccnc4n3)cc2)c1OC, CCOc1ccc(NC(=O)Cn2ccn(-c3ccc(F)c(F)c3)c(=O)c2=O)cc1, COc1cc(C(=O)N2CCN(CCc3ccccn3)CC2)cc(OC)c1OC, COc1ccc(NC(=O)CSCc2cnn(-c3ccccc3)c2-n2cccc2)cc1, CCn1ccc2cc(S(=O)(=O)N3CCC(C(=O)NCCc4ccc(C)cc4)CC3)ccc21, COc1ccccc1NC(=O)CN1C(=O)C2(SCC(=O)N2c2ccc(C)c(C)c2)c2ccccc21 (centres undefined), Cc1ccc2c(=O)cc(C(=O)Nc3ccc(S(=O)(=O)N4CCCCCC4)cc3)oc2c1C, CCCCOc1ccc(CNC(=O)CCCN2C(=O)CSc3c2c(C)nn3-c2ccccc2)cc1, CC(C)c1ccc(C2N=C(N)Nc3nc4ccccc4n32)cc1 (centres undefined), Cc1ccc(-n2c(=O)c3oc4ccccc4c3n(Cc3ccccc3F)c2=O)cc1C, O=C(Cn1c(=O)n(-c2ccc(F)c(Cl)c2)c(=O)c2sc3ccccc3c21)NC1CCCC1, CCOc1ccc(CCNC(=O)C2COc3ccccc3C2)cc1OCC (centres undefined), O=C(CN1C(=O)CCSc2ccccc21)Nc1ccccc1F, O=C(c1ccc2c(c1)N(Cc1ccc(Cl)cc1)C(=O)c1ccccc1S2(=O)=O)N1CCCCC1, Cc1cccn2c(=O)c3cc(C(=O)NCc4ccccc4)c(=N)n(CCOCCO)c3nc12, COc1ccc(CCNC(=O)CCCn2c(=O)c3ccccc3n(Cc3c(C)cc(C)cc3C)c2=O)cc1OC, Cc1ccc(NC(=O)CSc2nc(=O)n(CCCN(C)C)c3c2CCC3)cc1F, Cc1ccc(C)c(NC(=O)Cn2cc(C(=O)c3ccc(Cl)cc3)c(=O)c3ccc(C)nc32)c1, Cc1cccc(-c2nc3c4ccccc4nc(NCc4ccc(Cl)cc4)n3n2)c1, CC(=O)N1c2ccc(S(=O)(=O)N3CCCCCC3)cc2CC1C(=O)NCc1ccc(Cl)cc1 (centres undefined), O=C(CC1C(=O)OCCN1Cc1ccccc1)Nc1cccc(C(F)(F)F)c1 (centres undefined)
